Source: publication PMC12136788
This is one part of the list.

B1: chr5:116376479:116376480:+_ENSMUSG00000029516_ENSMUST00000051704|mus_mus|motif|central (ssRNA)
RNA: GGGAGUUCUACAGUCCGACGAUCCUGCUCCAGGAGGGAUCUCUGAGUCUCAGAGGCCUUCAGCUCCACCUCCUUCUGACGGAGCACAGCCUCCACCUCUGACACUCUGCGAUGUAACCGGGUCAUUUCCUGCUCCAUCUUGUGCAACAGAGGAUUGAGCAUCA
B2: chr17:60770872:60770873:+_ENSG00000011028_ENST00000303375|hu_hu|hu_hu_hu_mus_True|38_78 (ssRNA)
RNA: GGGAGUUCUACAGUCCGACGAUCUCUUUAAAAAAAAAAAAAAAAAGACAAACAAUAAUAAUGGCACUCGAGAAUCAAGAACUACAAUAGAGGGUCCAUGUCUUCGAUUUGUUCACAUCGUCCUGCACUGGGACACGGGGACUGCAACAGAGGAUUGAGCAUCA
B3: 55650286_55650406_580_CDS_ENSG00000126787_ENST00000247191|human|control|control (ssRNA)
RNA: GGGAGUUCUACAGUCCGACGAUCCUCAGCUUUCACAGCAUUCUGGUUUGAUAAAAGAAAACAAGGCAUAUCAGGUCUAUAACGACCCACUUUAAAUAUUCCUCGUUUAGCUUUCUCUCUCUGCUCUUUCAAUUUUUGAAGUUGCAACAGAGGAUUGAGCAUCA
B4: 159642612_159644452_156_CDS_ENSG00000171497_ENST00000307720|human|control|control (ssRNA)
RNA: GGGAGUUCUACAGUCCGACGAUCCAAUUCUAAGACAAUUCGACCAACUCGCUCCCCUCCGAUGUCCACGUCAAAGAAGACUCGAGGGUUACUGGGGUUGGAGGGCUUGGCUUGGGGGGACGGGUGCGACAUCUUGACUUGCAGCAACAGAGGAUUGAGCAUCA
B5: chr1:21069516:21069517:-_ENSG00000127483_ENST00000312239|hu_hu|FALSE|FALSE (ssRNA)
RNA: GGGAGUUCUACAGUCCGACGAUCUUAAAAUGUCAAGUGCCACAGGGAAGAGAAAUGAUAACCAGAAAUUUGUAUUUCUAGCUAGUACUAUUUAACACAACUUCACAAUACUAAAACAAAUACAAAUAAGAAAGGGUUAGGUAGCAACAGAGGAUUGAGCAUCA
B6: chr18:35731883:35731884:+_ENSMUSG00000037236_ENSMUST00000166793|perfect_dup|FALSE|FALSE (ssRNA)
RNA: GGGAGUUCUACAGUCCGACGAUCAAUGUUAAAUAUAGACUGCAAAUUAUGGGAAGAAGUACUAGCAGAAGACAGUGCACUAUGAGCUCCUUGUUGAUUCAAUGAAGAACUCAUUCCAAGAUUCAUUAAACUAGCAAGGCGUGCCAACAGAGGAUUGAGCAUCA
B7: 118653275_118653597_1064_CDS_ENSMUSG00000020114_ENSMUST00000020315|mouse|control|control (ssRNA)
RNA: GGGAGUUCUACAGUCCGACGAUCCAAAGGAAUUAUCUUUUCAAGGUAUUCACCUAUUCUAUGGCCAGCUUGCCUACUAAUAGCAGCAAUACACUGUAUGUAGGUCCUUGUUGUUGACAUGGAGUCAUUUUUGGACAACUCUGACAACAGAGGAUUGAGCAUCA
B8: chr2:85770095:85770096:+_ENSG00000168906_ENST00000306434|hu_hu|motif|central (ssRNA)
RNA: GGGAGUUCUACAGUCCGACGAUCAUCCAGAUCCCUGACAAUGACCCCAGGGCGGAGAUCGAAAUUCUUCUUCACAAUCUCGGAUAGCUCUCUCUCACUCUUCUGAGAGGUACCAUAAUGGAAAAUGGAGAUAGAUAAUGGAUGCAACAGAGGAUUGAGCAUCA
B9: 145586132_145586252_6219_CDS_ENSMUSG00000045482_ENSMUST00000132925|mouse|control|control (ssRNA)
RNA: GGGAGUUCUACAGUCCGACGAUCCUUCCACAAUCUUCACCACAGCUCGGAGGAUCUUGGCAUCUGGGGACUUCUCAAUGAGGGAGGUCAAGAUGGUCUGGAUGAAGUUCUUCCGCAUCUCCAUGCUCAUCACCGCCAGACGAGCAACAGAGGAUUGAGCAUCA
B10: 117003386_117003506_1447_3pUTR_ENSMUSG00000027351_ENSMUST00000028829|mouse|control|control (ssRNA)
RNA: GGGAGUUCUACAGUCCGACGAUCCUCCCUCUGAGUCUGACAUACAAUGAUAUAGCAUGCUCUCAGCACAGAGCAUGCAGCUAACUUGAUAUAUGCAUCUUUUAACAGGAUCUGGAGCGUCCUGGCAUUUCCCCCUGGCGUUUUCAACAGAGGAUUGAGCAUCA
B11: chr22:32879901:32879902:+_ENSG00000100225_ENST00000397426|hu_mus|hu_hu_hu_mus_False|28_48 (ssRNA)
RNA: GGGAGUUCUACAGUCCGACGAUCCUCUUCCAUACUCAUGGCAUCCUGAAUUGACUCAGCUUCAACAUUUUGACUAGGCCCUUCCAUACUGUCGUCAGUCCAGGCAUCAGACUGGGCGGCCUGUCCUUGGGAUGAAUCAGUCCCCAACAGAGGAUUGAGCAUCA
B12: chr14:57521665:57521666:+_ENSMUSG00000021945_ENSMUST00000022511|mus_hu|motif|central (ssRNA)
RNA: GGGAGUUCUACAGUCCGACGAUCAACAACAUCAUCAUCAUCUUCCACUGACGAGUUCUGAAACUUAUUAGAUCUAGACACGGAAGGAUUAGCUGGACCACUAAAUGAGUUUCCUACAUUCGUGAGACUAGUUGCCAUGGCCGUCAACAGAGGAUUGAGCAUCA
B13: chr3:131220538:131220539:-_ENSG00000114686_ENST00000264995|hu_mus|FALSE|FALSE (ssRNA)
RNA: GGGAGUUCUACAGUCCGACGAUCUUCUUCAGAAAGAUGUUCAUCCCACCAAGUACUACUCUUGCUGUGGAGAUUUCUAACAAAGAACAAGAUAUUCUUUCUUCUCUCUAAGCCGGGGUCAGCACCUAGGCCUCUGGCGCCACACAACAGAGGAUUGAGCAUCA
B14: 135516496_135516616_5143_3pUTR_ENSG00000113658_ENST00000545279|human|control|control (ssRNA)
RNA: GGGAGUUCUACAGUCCGACGAUCCAUGAACCCCAGUUCUAAUCUUGACAACAGAUUUCAGGUAUGAGUACUUAAUAAUCACUUCACAUCCUGAAGGAUAUCUUACUCUCAAAUGUUAUGAAAGGUAUAAAAUAGCUACAUCCUCAACAGAGGAUUGAGCAUCA
B15: chr12:96259795:96259796:+_ENSG00000139343_ENST00000266735|hu_hu|motif|central (ssRNA)
RNA: GGGAGUUCUACAGUCCGACGAUCAAGGACAUUAUUACACCUUAUUAAAACUUCACCCAGAUGUCCAGACAAAGCUCCAUCGGUGUAUUCUUCUGUAUUUGCAAGCUGCAUGUUCAUGUAGCCAUCUACAGAUACCAGAUAGCCCAACAGAGGAUUGAGCAUCA
B16: chr4:175231952:175231953:+_ENSG00000164118_ENST00000503780|hu_mus|FALSE|FALSE (ssRNA)
RNA: GGGAGUUCUACAGUCCGACGAUCGGGUACAAAGUCCACAUCACUAAUUGACUCACAGUCUUGACUUGCCACAUUACGCUCUACAGAUUCACUCUUUUUGGACAACAGCAUCUCCGUUUCUAGAAGAGUGACACGACUUAGAAGCAACAGAGGAUUGAGCAUCA
B17: chr11:77340908:77340909:-_ENSG00000074201_ENST00000525064|hu_hu|hu_hu_hu_mus_True|18_18 (ssRNA)
RNA: GGGAGUUCUACAGUCCGACGAUCGUUUGGAUCCCUGGACACCGCAUGUAAACUAAUGGUGGGGUAUUCCAGUGAGAAUCCUAAUCCCGAACCAUCUAACCAGGACAGGCGGCUCUCAGCGAUGUAAAGCGUGCCGGUGCCGAGCAACAGAGGAUUGAGCAUCA
B18: 77287842_77287962_3175_CDS_ENSMUSG00000036377_ENSMUST00000163347|mouse|control|control (ssRNA)
RNA: GGGAGUUCUACAGUCCGACGAUCCACUAAGUGGGGUCUGCUCAGUUUGGAGAGUGGGGAUGAAGGUGGGGUCUGGCUGGCAGGCUUGGGAGCCAGGGCCGGCUUCUGCAUGGAUGGCAUUUUGCUUACUGCCCUGUCUUGCUCCAACAGAGGAUUGAGCAUCA
B19: chr12:39756943:39756944:-_ENSG00000139116_ENST00000544797|hu_mus|hu_hu_hu_mus_False|18_38 (ssRNA)
RNA: GGGAGUUCUACAGUCCGACGAUCGGUUUGGCUGUUACCCCCAAGGGAAUCCUGCAAGAGUCUUGUCAGCUUAGAGUCUCUGUAAGGGACAUGGGUGGCCCUCUUGCUCUUGUCCCCCAAGGCACUUAUUACAUUCCCAAGAGCCAACAGAGGAUUGAGCAUCA
B20: chr17:2570287:2570288:+_ENSG00000007168_ENST00000397195|hu_hu|FALSE|FALSE (ssRNA)
RNA: GGGAGUUCUACAGUCCGACGAUCCUGACCAAGAGGUCCACCUGACGUAAAUUCUUCUUUUGCUUCAUUUAGCUUUGAUUCUAAUUCCAUAACCUUCUUUUGUAAUCUAAUAACAGAUGUCCAUUUUUUUUCCAAAAGACCAGCCAACAGAGGAUUGAGCAUCA
B21: chr2:61275951:61275952:+_ENSG00000162928_ENST00000295030|hu_hu|motif|central (ssRNA)
RNA: GGGAGUUCUACAGUCCGACGAUCGUUUUCAUUGGAUUGUACAUUCAUUUCUUUGUGAGAAAUAAUUUUAAAAAGUACUCGGAAGUAUUGUUCAACUGCAGGCAAACAUGAAAGAUAUCAAAGAUCUUGCUUUUCUCCAUCUUUCAACAGAGGAUUGAGCAUCA
B22: 4150348_4153603_2001_CDS_ENSG00000167325_ENST00000300738|human|control|control (ssRNA)
RNA: GGGAGUUCUACAGUCCGACGAUCAGGUUCAAUGGACUCAUUAUUCCCCAGGAUCUGAGCAGUGGAAGCUGUAGGCAUCGGGGCAAUAAGUAAACUGUUUCUUAUACCAUACUUUGCAAUCUUCUCCUUGAGAACCUUCCAGUCCAACAGAGGAUUGAGCAUCA

Target: T1, UNK ZnF1-3 (human, UniProt Q9C0B0 31-174)
T1 sequence: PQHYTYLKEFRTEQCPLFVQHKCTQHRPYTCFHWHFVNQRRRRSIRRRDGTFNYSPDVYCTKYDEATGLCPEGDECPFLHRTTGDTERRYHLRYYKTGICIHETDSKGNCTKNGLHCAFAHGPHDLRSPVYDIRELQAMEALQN
Experiment: nsRBNS (natural sequence RNA bind-n-seq); RBNS binding buffer (assumed for nsRBNS): 25 mM Tris pH 7.5, 150 mM KCl, 3 mM MgCl2, 0.01% Triton X-100, 500 ug/ml BSA, 20 U/ml SUPERase-In, 4 C; UNK is unkempt and MSI1 is Musashi-1; names of the RNAs are library labels; protein concentration not given here; high values mean tight binding

Row | Binder | binding signal [enrichment R]
1 | B1 | 0.476
2 | B2 | 2.68
3 | B3 | 1.16
4 | B4 | 0.617
5 | B5 | 1.68
6 | B6 | 0.78
7 | B7 | 0.396
8 | B8 | 0.957
9 | B9 | 1.29
10 | B10 | 0.787
11 | B11 | 0.894
12 | B12 | 0.976
13 | B13 | 0.685
14 | B14 | 0.968
15 | B15 | 0.474
16 | B16 | 1.04
17 | B17 | 0.81
18 | B18 | 0.939
19 | B19 | 0.723
20 | B20 | 0.985
21 | B21 | 0.619
22 | B22 | 0.831
